The whole screen tested about 220,000 compounds, of which about 2,300 (1%) were called active. The inconclusive results got no clear call from the source; some entries with a clear call stand among them for comparison. Calls follow the shape of the dose curve; as a rule, active = well fitted inhibition curve with a large enough effect; inconclusive = small, poorly fitted or top-dose-only effect, or effect the other way; inactive = no such curve, though single readings can be large or run the other way. Potencies of inconclusive entries are left out as doubtful fits.
What follows are compounds tested against Neuropeptide S receptor (Homo sapiens) (UniProt Q6W5P4) (assay: qHTS Assay for Antagonists of the Neuropeptide S Receptor: cAMP Signal Transduction). Details: CHO-NPSR cells, cAMP TR-FRET, antagonist mode; series mostly up to 38.3 µM.
Also: nearly all actives have a fitted effect of over 50% in size.
Potency is read from the fitted curve at half-maximal effect; tags tell the direction and shape of the fitted curve.

UniProt Q6W5P4, sequence (Q6W5P4 whole entry, looked up): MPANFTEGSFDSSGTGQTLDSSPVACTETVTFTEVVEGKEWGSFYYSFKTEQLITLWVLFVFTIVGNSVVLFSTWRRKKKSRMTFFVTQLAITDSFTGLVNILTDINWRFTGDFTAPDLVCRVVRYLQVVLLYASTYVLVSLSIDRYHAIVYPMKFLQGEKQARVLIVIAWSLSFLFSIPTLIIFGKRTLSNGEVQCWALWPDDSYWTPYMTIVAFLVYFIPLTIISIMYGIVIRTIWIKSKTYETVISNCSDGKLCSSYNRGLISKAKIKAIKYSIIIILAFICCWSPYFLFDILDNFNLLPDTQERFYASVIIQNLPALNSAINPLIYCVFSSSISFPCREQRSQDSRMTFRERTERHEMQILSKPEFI

| SMILES | Potency |
| --- | --- |
| CC(C)(C)C1CCc2c(sc3nc(SCC(=O)O)nc(N)c23)C1 (stereo not drawn) | inconclusive [inhibitor, single point] |
| C=Cc1c(C)c2cc3[nH]c(cc4nc(cc5nc(cc1[nH]2)C(C)=C5CCC(=O)O)C(CCC(=O)O)=C4C)c(C)c3C=C | inconclusive [inhibitor, partial curve] |
| CCN(CC)S(=O)(=O)c1ccc(N2CCOCC2)c(NS(=O)(=O)c2ccc(OC)cc2)c1 | inactive |
| Cc1cccc(N2CCN(C(=O)CCn3c(=O)[nH]c4ccccc4c3=O)CC2)c1C | inconclusive [inhibitor, partial curve] |
| N#CC1=C(N)N(c2ccccc2)C(c2cccc([N+](=O)[O-])c2)C1(C#N)C#N (stereo not drawn) | inactive |
| CC(C)N(C(=O)Nc1ccc2nsnc2c1)C(C)C | inactive |
| Cc1csc2c(N3CCC(C(=O)O)CC3)ncnc12 | inactive |
| Oc1ccc(/C=N/Nc2nc(N3CCCCCC3)nc(N3CCCCCC3)n2)c(O)c1 | inconclusive [inhibitor, single point] |
| CC(=O)N1CC[n+]2c(-c3ccc(Cl)cc3Cl)csc21 | inactive |
| Cc1ccc(/C=N/N2CCN(Cc3ccc(C)cc3)CC2)cc1 | inactive |
| O=C(CSc1nc2ccccc2s1)CSc1nc2ccccc2s1 | inactive |
| Cc1ccc2nc(SCC(=O)Nc3ccccc3N3CCOCC3)c(C#N)cc2c1 | inconclusive [inhibitor, single point] |
| CC(C)C(=O)NC(c1ccccc1)c1cc([N+](=O)[O-])c2cccnc2c1O (stereo not drawn) | inactive |
| CNc1cc(CSC)nc(SCc2ccc(Cl)cc2Cl)n1 | inconclusive [inhibitor, single point] |
| COC(=O)c1[nH]c2cc(OC)c(OC)cc2c1NC(=O)Oc1ccccc1 | inconclusive [inhibitor, partial curve] |
| COc1ccc(-c2cc(C(F)(F)F)nc(SCC(=O)Nc3cc(C)on3)n2)cc1 | inconclusive [inhibitor, single point] |
| COC(=O)c1nc(C(=O)OC)c(C(=O)OC)nc1C(=O)OC | inconclusive [inhibitor, single point] |
| CCOC(=O)Cc1nnc(NC(=O)C2CCCCC2)s1 | inactive |
| Nc1ccccc1C(=O)NCc1ccccc1 | inactive |
| O=C(OCn1nnc2ccccc2c1=O)c1cn(-c2ccccc2)nc1-c1cccnc1 | inconclusive [inhibitor, partial curve] |
| Cc1cc(Cl)nc2ccc(Cc3ccc4nc(Cl)cc(C)c4c3)cc12 | inactive |
| c1ccc(-c2nnc(N3CCN(c4ccccn4)CC3)c3ccccc23)cc1 | inconclusive [inhibitor, partial curve] |

| SMILES | Potency |
| --- | --- |
| O=[N+]([O-])c1cc(C(F)(F)F)cc([N+](=O)[O-])c1NCCNC(=S)Nc1ccc(Cl)c(Cl)c1 | inconclusive [activator, single point] |
| CCCCSc1nc(C)cc(SCC(=O)N/N=C/c2cccc(OC)c2O)n1 | inconclusive [inhibitor, partial curve] |
| CCc1c(C#N)c(SCCC(=O)Nc2ccc(C)cc2)nc2c1C(=O)CC(C)(C)C2 | inconclusive [inhibitor, full curve, poor fit] |
| O=[N+]([O-])/C=C/c1cn(Cc2ccc(Cl)cc2)c2ccccc12 | inconclusive [inhibitor, single point] |
| O=C(Cn1nc(CNc2ccc(Cl)cc2)[n+]2c1CCCCC2)c1ccc(Cl)cc1 | inconclusive [inhibitor, partial curve] |
| COc1ccc(CNC(=O)CN(Cc2ccccc2)S(=O)(=O)c2ccc(Cl)cc2)cc1 | inconclusive [inhibitor, single point] |
| CCOc1cc(CNc2ccc3c(c2)OCCO3)cc(Br)c1OCC | inconclusive [activator, single point] |
| O=C(N/N=C/c1cn(-c2ccccc2)nc1-c1ccccc1)c1ccco1 | inconclusive [inhibitor, partial curve, poor fit] |
| CCN(CC)c1ccc(/C=C2\C(=O)N(c3nnc(C)c(=O)[nH]3)N=C2C)cc1 | inconclusive [inhibitor, single point] |
| O=C(/C=C/c1ccccc1)CC(O)(c1ccccc1)C(F)(F)F (stereo not drawn) | inconclusive [activator, partial curve] |
| COc1nc(Nc2ccc(O)cc2)nc(OC(C(F)(F)F)C(F)(F)F)n1 | inconclusive [inhibitor, single point] |
| O=C1c2ccccc2C(=O)N1CCCCN(C(=O)c1ccc(Cl)s1)c1ccc(Cl)cc1 | inactive |
| O=C1c2ccccc2CN1CCNC(=S)NC1CCCCC1 | inactive |
| Cc1ccc(C(C(=O)NC2CCCCC2)N(C(=O)Cc2c[nH]c3ccccc23)c2ccccc2)o1 (stereo not drawn) | inconclusive [inhibitor, partial curve, poor fit] |
| CCOC(=O)COc1ccccc1C1Nc2ccccc2C(=O)N1c1cccc(Cl)c1 (stereo not drawn) | inconclusive [inhibitor, single point] |
| Cc1c(OCc2ccccc2)c(=O)ccn1Cc1ccc(Cl)cc1 | inconclusive [inhibitor, single point] |
| COc1ccccc1CNC(=O)CN(c1ccc(C)cc1)S(=O)(=O)c1c(C)n[nH]c1C | inconclusive [inhibitor, partial curve, poor fit] |
| O=C(O)c1ccn2c(C(=O)c3ccc(Cl)cc3)c(-c3ccccc3)cc2c1 | inconclusive [inhibitor, single point] |
| COc1ccc(Nc2nnc(SCC(=O)Nc3ccc4[nH]c(=O)[nH]c4c3)s2)cc1 | inactive |
| CCOc1nc(Nc2ccc([N+](=O)[O-])cc2)nc(NC(C)(C)C)n1 | inconclusive [inhibitor, single point] |
| COc1ccc2[nH]cc(C(=O)CCl)c2c1 | inconclusive [inhibitor, single point] |
